The supplement of paper PMC3334620
Over roughly 33,000 sequences, “E-score (-0.5 to 0.5)” has its median near -0.017; the highest 2% begin near 0.3. The list shows a part of the results.

These sequences were tested against T1, Sut1 (UniProt P53032) (assay: PBM E-score (8-mer binding enrichment) (E-score (-0.5 to 0.5)); higher = stronger / more preferred TF binding; most listed sequences are background and not binding sites). Settings: protein concentration: 200 nM; construct: GST-full length.
T1 sequence: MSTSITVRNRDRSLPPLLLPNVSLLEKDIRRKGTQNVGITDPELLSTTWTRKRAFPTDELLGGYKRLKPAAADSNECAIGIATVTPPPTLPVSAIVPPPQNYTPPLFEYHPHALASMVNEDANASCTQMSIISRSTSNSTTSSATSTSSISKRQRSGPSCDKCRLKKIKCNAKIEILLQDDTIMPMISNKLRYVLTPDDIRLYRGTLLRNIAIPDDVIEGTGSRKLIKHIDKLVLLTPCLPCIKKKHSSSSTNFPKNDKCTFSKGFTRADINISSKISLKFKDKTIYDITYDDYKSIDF
Summary of the method: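 Using PURExpress in vitro transcription/translation, GST-tagged yeast transcription factors were made in full-length or DNA-binding-domain form. These were applied at about 100-200 nM to double-stranded universal all-10-mer Agilent arrays, and bound protein was detected with fluorescent anti-GST. Scans were normalised with masliner before the Universal PBM Analysis Suite assigned E-scores to ungapped eight-base words pooled with their reverse complements.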

Sequence	PBM E-score
CTCTGTGA	-0.105
CGTACCAA	-0.0518
AGGTGAGA	-0.0109
GGCTATTA	-0.0333
CTAGTACA	0.132
ATCCGAAC	0.213
AGCTTTCC	0.0294
AGAGCCGA	0.0868
CAACTCAG	-0.155
AGATGCAT	-0.00434
GGATATTA	0.102
ACCTTACG	0.0293
GCAGCCCC	0.195
ATGGCGCG	-0.0467
CGTGTGCC	-0.274
AGGAGACC	-0.18
CCGTGCGC	-0.0983
ATGGCTAG	-0.0686
CATGATGC	-0.00269
ATAGCTTA	0.0881
AACGTCGG	0.0158
GGTAAGAA	-0.141
ATCCTCTA	-0.0137
TCGACAAA	0.213
GCTAGCCC	-0.172

Sequence	PBM E-score
ATTTTCAG	0.233
ATTCGTAG	0.0467
GTAAACCA	-0.063
CTAGCGGA	0.0881
CACGCGGG	-0.176
CGAGGCTC	-0.259
CTCCCCAC	-0.256
AGTAATGC	0.0692
AACCGAGA	0.195
GCTTCGCC	-0.104
CCTTATCG	0.121
AGGTACGC	-0.0325
ACGTATTC	-0.0472
AACGCTGG	-0.0988
AGCCGAAT	0.15
CGCTAGGC	-0.138
GGCCCCAA	-0.279
CATATCAA	0.0696
CAGGTATA	-0.142
AAGATAGA	0.0968
ACCAGCTG	-0.203
ACTTGCGG	-0.0528
AAGTCAGG	-0.0851
TACGTACA	0.0411
CTTGACGC	-0.169

Sequence	PBM E-score
TCGCAAGA	-0.186
TCCCCTAA	-0.00841
ACTGCTGC	-0.129
GTCGGAGA	0.325
ATCCAGAG	0.0385
AGTCAGCG	0.0334
GAACCACC	0.0336
GTGCAAAA	0.0548
AAATTCAG	0.027
CCATAGGA	-0.252
TCCAGGAA	-0.078
CTGCGTAA	-0.0977
ACCAATAA	0.102
CACCCAAA	-0.0808
CTTTTGCA	0.185
TAGATTCA	0.0259
CCCGGACA	0.354
ACACGCGA	-0.014
TAACGTAA	0.138
ATCCAGCC	-0.155
CTTATGTA	0.16
CGGACAGA	0.0507
CTTTTAAC	0.125
CAACTAGC	0.0249
GTGCGTCA	-0.079

Sequence	PBM E-score
GGTACGCA	0.0653
GTGCCGTA	0.051
CGGGTCAC	-0.208
AAACGGTT	-0.124
ACGCCTAG	-0.199
AGAATCGA	0.0407
CGTATCAG	-0.0598
ATTCAGAG	0.103
CCGAACTA	0.198
CACGAGAC	-0.165
GTCGGTCA	-0.109
ACCTCCAT	-0.232
CCCGTTCG	-0.0433
AGACTGAA	0.0426
AACTTGGT	0.0492
AAAGAGTT	0.173
AAACAACC	0.233
GTTAGAAA	0.0725
CCACGGGG	-0.12
GTGAGAAA	0.214
CCGCCAAC	-0.121
AGAGAGGA	-0.219
CTTAAGCA	0.0326
ATTTCTGC	0.192
CCCGCATA	-0.0197

Sequence	PBM E-score
GCCGTACA	0.086
CAGATAAC	0.081
ACTCGTGG	-0.221
CTCTCAGA	-0.139
AGCCAATG	-0.0122
ACCGTTAG	0.00367
CCTATTAA	0.087
AATATGAC	0.142
ACCGGTAA	-0.0335
GTGTCGTA	-0.155
CCCTGCCG	-0.232
GAGGAGGA	-0.154
AATTATTG	0.173
AAACTAGA	0.0134
CTCTACTC	-0.0336
AATTCCCA	0.0113
GTTAGAGA	-0.112
AGAACTTA	0.216
ACCTAGGG	-0.141
ATAGGTAC	0.177
CTTTCGAA	0.0233
AGACCATG	-0.363
GATGGCTA	0.0396
TGAACACA	0.0445
TAAGAGAA	0.0235

Sequence	PBM E-score
AGTCATAG	-0.181
CGTCAGCC	0.0636
ATAATACA	0.275
CGAACAAC	0.213
ATAGTCCG	0.473
GATGGGCC	-0.23
GATGAACC	-0.0422
ATGTAACG	0.18
AACTGGGG	-0.145
CAGCCAAG	-0.167
ATACTACC	0.0381
AAAGACAC	0.13
CCCTTTCG	0.0903
AACTTCAC	0.232
AGTTCTAG	0.0928
AGGCTAGC	-0.2
CCACATAG	-0.0972
AAAGTCAC	0.079
CCCCCTAA	-0.175
TCACTACA	0.186
TACCAATA	0.0899
AAAAAGCA	0.00986
GAGTTCAC	0.0677
AAAGGATG	-0.0885
GGACCGCC	-0.195

Sequence	PBM E-score
ACCGTGCT	-0.233
AGTATTGG	0.032
CAGGTATG	-0.0447
TCGGATCA	0.119
CTCCTGAC	-0.0811
CGCTCGAC	-0.346
CTTAGCGC	0.0661
CAGTAAGG	-0.109
AGAACGAC	-0.00816
AAACGAAT	0.136
AGCGTCTG	-0.211
ATCGTTCC	-0.174
TATTCAGA	0.12
ACCCTTAG	-0.214
ATATCACA	0.024
AAACGTAA	0.179
CACGGGTA	-0.251
CAAGGGAC	-0.305
AGATGGTA	0.0768
CTGCTAAA	0.0119
CGTGGCGC	-0.19
AGTTACAT	-0.00161
GCGGGACA	-0.159
TGCAAGAA	0.217
CCTCCGAG	0.0578

Sequence	PBM E-score
GGATCGGA	0.277
GAATGGAA	-0.00112
AAGGGTAA	-0.192
CCGAACGC	0.137
ACACGAGG	-0.221
CCAGAGGA	-0.196
AAATCAGG	0.0614
GATGGTCA	0.025
CGAAATCG	0.111
CTGAACAA	0.138
CTTAGATC	-0.0468
CGCTCCCG	-0.314
CTGTGCCA	-0.258
CATGGACG	-0.0757
CGCGCCGC	-0.0461
ACCAACCC	-0.212
AGAATTAT	0.218
ACAGCTGA	-0.157
ACGTCGGA	0.285
CTTAAAAA	0.101
AGGTTCAG	-0.0444
CTTCCTCC	-0.165
AACGCGTG	-0.0703
CTAAGCTA	0.043
AAGTCACC	-0.0436

Sequence	PBM E-score
AGTCGGGC	-0.115
ACTGCTCC	-0.0101
GGAGCTGA	0.203
GAAACGGA	0.284
AAGCAGTG	-0.117
GGCCACAA	-0.0979
CGAAGCCC	-0.0968
CGCAGGCC	-0.14
CGCGCGTC	0.11
CGCAGCGA	-0.16
ATATGAGG	-0.0891
ATTGTCGC	-0.0361
CCTCTATA	-0.0858
ACGAAAAA	0.106
CCCCGCAG	-0.161
GGGTCCCA	-0.307
CCGGCACG	0.00357
AAAGCTAG	0.00596
CTCGAGGC	-0.229
CGGCTAAG	-0.0579
ACTGTATG	0.0934
CGGCCAGA	-0.104
ACGGCTAG	-0.281
AACCCATT	0.143
CCTGATGC	0.0278

Sequence	PBM E-score
GGTGACTA	-0.0599
ATACCCAG	-0.271
ATTGAACA	0.134
CCCGAGAA	0.157
AAGAGTCG	0.00242
AGGTGACG	-0.219
CGTGTAGA	0.026
GGGATCCA	-0.0859
CACGTCAC	0.00874
ATATAACG	0.299
CGTACGGC	-0.194
TGCGAGCA	-0.072
CAATATAA	0.308
AAGACAAC	0.243
GCACCTGA	-0.233
GCAAGGAC	-0.1
GCGGAAAA	0.174
ACCATGAC	-0.0527
AAGTCTAG	-0.0617
ATTTGACC	0.0463
ACACAGTA	-0.0509
ACCCTGAT	-0.266
ACAGAACT	0.0341
AACGATGG	-0.00089
CTGATATC	0.0296

Sequence	PBM E-score
AATCTAAA	0.241
AGATGAGA	0.00604
ATAAGGGC	-0.0567
ATCACCAC	0.164
AGGCAAAC	-0.0553
ACTTAGCG	0.0233
CAGTAGTC	-0.287
GTCGAACA	-0.0651
ACTTTGAA	0.252
CACCGCTC	0.0294
ATGATATG	0.241
GTGCACGA	-0.157
CCTTCTCG	-0.131
GGAGTGAC	0.254
CAGAGAGG	-0.375
CTCTTGGA	-0.0267
CCAGGGAG	-0.251
ATTGACTA	0.042
GGCCGTCA	0.00137
GAAATCTC	0.092
CATCCTTA	-0.0588
AGAAGGGG	-0.385
CCGCCTCA	-0.18
CCTGCGCG	0.0101
CGAAGATA	0.132

Sequence	PBM E-score
ACGTTAAC	-0.072
ACATTCAC	0.0415
CCACCATA	-0.0903
ACGCTCTG	-0.2
ATTTGATG	0.177
GTCTCCCA	-0.259
AAACACTC	0.2
AGGATCTC	-0.146
AGCACACA	-0.167
CAACCGAC	0.0614
CTGCACAA	-0.0274
CTTCGTGA	-0.113
ATGGGTGC	-0.117
AGGAGTCC	0.202
TCGGCACA	-0.0667
GACGGCCC	-0.379
ACCCGGCT	-0.16
ATCATCCG	-0.0903
CCGAGTTA	0.0414
GACTGTTA	-0.0152
TCTGCACA	-0.275
AAGCAGGC	-0.308
CTGTTCCA	-0.094
AAAACGAT	0.154
CAAGGAGA	0.0606

Sequence	PBM E-score
ATTATACA	0.251
AGCGACAT	-0.0586
CCGAACCG	0.184
CAACAGCG	-0.19
CGGAGGAG	-0.0266
ACGCTCGG	0.111
AACGCCCT	-0.159
CTTAAGTC	-0.00478
GAGGGACC	-0.142
CAAATCGC	-0.0402
GGGGCCAC	-0.304
GCCGGCAC	0.0646
GGATGCAC	-0.257
ATTCGAAA	0.248
AGTTGGTC	0.0453
ACATATAA	0.257
AACTACGT	-0.0634
GTTAGCCA	0.0339
ATGACAGA	0.0896
ATTACAGG	0.173
ACGTAACA	0.0183
ATCTAAGA	0.0658
ACGGCCGT	-0.257
AAGGGAAC	-0.133
GGACCGAA	0.151

Sequence	PBM E-score
CGCAATAA	0.218
CATAACGA	-0.00264
TAGTGCAA	0.0855
CTTGCGGA	0.194
ATGTGTGC	-0.195
AGCGCTTG	0.0389
GTGGTAAC	0.0333
ATATGGAA	0.0219
CGTCAAAA	0.254
CATAGTCG	-0.0151
CTGGTAGC	-0.0326
ACCGGACG	0.114
ACCCTCCG	-0.153
AAGAATGC	0.0552
CGTATTGA	0.0752
GGGCACTA	-0.167
ACTATAAA	0.321
ATATCTTG	0.0892
AATCGACG	-0.0272
